# In article PMC9911399, “Two distinct binding modes provide the RNA-binding protein RbFox with extraordinary sequence specificity”:
# Changes are numbered by the printed parent chain; changes in the protein carry UniProt numbers. Some of the results follow.
# T1: RBFOX1 RRM (Homo sapiens, UniProt Q9NWB1 109-208)
# T1 sequence: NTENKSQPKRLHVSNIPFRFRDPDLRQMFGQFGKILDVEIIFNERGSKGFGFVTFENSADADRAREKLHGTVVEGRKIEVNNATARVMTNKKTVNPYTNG
# B1: CCGGCGC (DNA:RNA)
# RNA: GGGAGACCGGAAUUCAGAUUGUCCCCGGCGCUUAAAUCCCGUCGUAGCCACCA
# DNA 1: CAATCTGAATTCCGGTCTCCC
# DNA 2: TGGTGGCTACGACGGGATT
# B2: UUGAGAG (DNA:RNA)
# RNA: B1 RNA with C25U, C26U, G28A, C29G, G30A, C31G
# DNA 1: CAATCTGAATTCCGGTCTCCC
# DNA 2: TGGTGGCTACGACGGGATT
# B3: UCCGCAC (DNA:RNA)
# RNA: B1 RNA with C25U, G27C, G30A
# DNA 1: CAATCTGAATTCCGGTCTCCC
# DNA 2: TGGTGGCTACGACGGGATT
# B4: CGAAUCC (DNA:RNA)
# RNA: B1 RNA with C26G, G27A, G28A, C29U, G30C
# DNA 1: CAATCTGAATTCCGGTCTCCC
# DNA 2: TGGTGGCTACGACGGGATT
# B5: CUAUUGC (DNA:RNA)
# RNA: B1 RNA with C26U, G27A, G28U, C29U
# DNA 1: CAATCTGAATTCCGGTCTCCC
# DNA 2: TGGTGGCTACGACGGGATT
# B6: AGAGGUC (DNA:RNA)
# RNA: B1 RNA with C25A, C26G, G27A, C29G, G30U
# DNA 1: CAATCTGAATTCCGGTCTCCC
# DNA 2: TGGTGGCTACGACGGGATT
# B7: AGGUGGC (DNA:RNA)
# RNA: B1 RNA with C25A, C26G, G28U, C29G
# DNA 1: CAATCTGAATTCCGGTCTCCC
# DNA 2: TGGTGGCTACGACGGGATT
# B8: GGAUAAA (DNA:RNA)
# RNA: GGGAGACCGGAAUUCAGAUUGUCCGGAUAAAUUAAAUCCCGUCGUAGCCACCA
# DNA 1: CAATCTGAATTCCGGTCTCCC
# DNA 2: TGGTGGCTACGACGGGATT
# B9: GAGGCAC (DNA:RNA)
# RNA: B1 RNA with C25G, C26A, G30A
# DNA 1: CAATCTGAATTCCGGTCTCCC
# DNA 2: TGGTGGCTACGACGGGATT
# B10: AGAAUUG (DNA:RNA)
# RNA: B8 RNA with G25A, U28A, A29U, A30U, A31G
# DNA 1: CAATCTGAATTCCGGTCTCCC
# DNA 2: TGGTGGCTACGACGGGATT
# B11: UAUUCUC (DNA:RNA)
# RNA: B1 RNA with C25U, C26A, G27U, G28U, G30U
# DNA 1: CAATCTGAATTCCGGTCTCCC
# DNA 2: TGGTGGCTACGACGGGATT
# B12: CUCUCUC (DNA:RNA)
# RNA: B1 RNA with C26U, G27C, G28U, G30U
# DNA 1: CAATCTGAATTCCGGTCTCCC
# DNA 2: TGGTGGCTACGACGGGATT
# B13: ACACGAU (DNA:RNA)
# RNA: B8 RNA with G25A, G26C, U28C, A29G, A31U
# DNA 1: CAATCTGAATTCCGGTCTCCC
# DNA 2: TGGTGGCTACGACGGGATT
# B14: CGCAAAA (DNA:RNA)
# RNA: B8 RNA with G25C, A27C, U28A
# DNA 1: CAATCTGAATTCCGGTCTCCC
# DNA 2: TGGTGGCTACGACGGGATT
# B15: CGAGGCA (DNA:RNA)
# RNA: B8 RNA with G25C, U28G, A29G, A30C
# DNA 1: CAATCTGAATTCCGGTCTCCC
# DNA 2: TGGTGGCTACGACGGGATT
# B16: CACGUUA (DNA:RNA)
# RNA: B1 RNA with C26A, G27C, C29U, G30U, C31A
# DNA 1: CAATCTGAATTCCGGTCTCCC
# DNA 2: TGGTGGCTACGACGGGATT
# B17: CUCAAAU (DNA:RNA)
# RNA: B8 RNA with G25C, G26U, A27C, U28A, A31U
# DNA 1: CAATCTGAATTCCGGTCTCCC
# DNA 2: TGGTGGCTACGACGGGATT
# B18: UAAGGUG (DNA:RNA)
# RNA: B1 RNA with C25U, C26A, G27A, C29G, G30U, C31G
# DNA 1: CAATCTGAATTCCGGTCTCCC
# DNA 2: TGGTGGCTACGACGGGATT
# B19: ACAGUUG (DNA:RNA)
# RNA: B1 RNA with C25A, G27A, C29U, G30U, C31G
# DNA 1: CAATCTGAATTCCGGTCTCCC
# DNA 2: TGGTGGCTACGACGGGATT
# B20: AGGUAGC (DNA:RNA)
# RNA: B1 RNA with C25A, C26G, G28U, C29A
# DNA 1: CAATCTGAATTCCGGTCTCCC
# DNA 2: TGGTGGCTACGACGGGATT
# B21: CUCACGU (DNA:RNA)
# RNA: B1 RNA with C26U, G27C, G28A, C31U
# DNA 1: CAATCTGAATTCCGGTCTCCC
# DNA 2: TGGTGGCTACGACGGGATT
# B22: AAAUAUA (DNA:RNA)
# RNA: B8 RNA with G25A, G26A, A30U
# DNA 1: CAATCTGAATTCCGGTCTCCC
# DNA 2: TGGTGGCTACGACGGGATT
# B23: GACUUAG (DNA:RNA)
# RNA: B8 RNA with G26A, A27C, A29U, A31G
# DNA 1: CAATCTGAATTCCGGTCTCCC
# DNA 2: TGGTGGCTACGACGGGATT
# B24: GGCGACA (DNA:RNA)
# RNA: B8 RNA with A27C, U28G, A30C
# DNA 1: CAATCTGAATTCCGGTCTCCC
# DNA 2: TGGTGGCTACGACGGGATT
# B25: UGAUAGC (DNA:RNA)
# RNA: B8 RNA with G25U, A30G, A31C
# DNA 1: CAATCTGAATTCCGGTCTCCC
# DNA 2: TGGTGGCTACGACGGGATT
# B26: UGGGACG (DNA:RNA)
# RNA: B1 RNA with C25U, C26G, C29A, G30C, C31G
# DNA 1: CAATCTGAATTCCGGTCTCCC
# DNA 2: TGGTGGCTACGACGGGATT
# B27: AGACCAC (DNA:RNA)
# RNA: B8 RNA with G25A, U28C, A29C, A31C
# DNA 1: CAATCTGAATTCCGGTCTCCC
# DNA 2: TGGTGGCTACGACGGGATT
# B28: CCGCUUG (DNA:RNA)
# RNA: B1 RNA with G28C, C29U, G30U, C31G
# DNA 1: CAATCTGAATTCCGGTCTCCC
# DNA 2: TGGTGGCTACGACGGGATT
# B29: UCCUACU (DNA:RNA)
# RNA: B8 RNA with G25U, G26C, A27C, A30C, A31U
# DNA 1: CAATCTGAATTCCGGTCTCCC
# DNA 2: TGGTGGCTACGACGGGATT
# B30: AUCGAGA (DNA:RNA)
# RNA: B1 RNA with C25A, C26U, G27C, C29A, C31A
# DNA 1: CAATCTGAATTCCGGTCTCCC
# DNA 2: TGGTGGCTACGACGGGATT
# B31: ACAGCAA (DNA:RNA)
# RNA: B1 RNA with C25A, G27A, G30A, C31A
# DNA 1: CAATCTGAATTCCGGTCTCCC
# DNA 2: TGGTGGCTACGACGGGATT
# Target: T1, RBFOX1 RRM
# Experiment: EMSA; HiTS-Eq, 1 nM pool, 10 min; buffer printed only for the single-RNA assays: 10 mM Tris pH 7.5, 150 mM NaCl, 3.4 mM EDTA, 0.001% NP-40, 30 C
# Conditions: tags: His6 N-terminal (pET28a); label: 5' 32P
# How it was run: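 Relative association constants, normalised to the cognate motif, were derived by comparing read counts of each RNA species with those of the control reaction. The RNA sequenced was the free fraction, separated by 8% native PAGE after a 10 min equilibration in 50 µL of 1 nM 5′-radiolabelled RNA (7 randomized nucleotides) with increasing concentrations of purified wild-type or mutant RbFox RRM.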
row,Binder,binding signal
1,B1,0.0147 KA relative to UGCAUGU
2,B2,0.0165 KA relative to UGCAUGU
3,B3,0.0164 KA relative to UGCAUGU
4,B4,0.00689 KA relative to UGCAUGU
5,B5,0.0111 KA relative to UGCAUGU
6,B6,0.012 KA relative to UGCAUGU
7,B7,0.0219 KA relative to UGCAUGU
8,B8,0.00928 KA relative to UGCAUGU
9,B9,0.02 KA relative to UGCAUGU
10,B10,0.00805 KA relative to UGCAUGU
11,B11,0.0117 KA relative to UGCAUGU
12,B12,0.00875 KA relative to UGCAUGU
13,B13,0.00137 KA relative to UGCAUGU
14,B14,0.00557 KA relative to UGCAUGU
15,B15,0.0146 KA relative to UGCAUGU
16,B16,0.00221 KA relative to UGCAUGU

row,Binder,binding signal
1,B17,0.00185 KA relative to UGCAUGU
2,B18,0.0193 KA relative to UGCAUGU
3,B19,0.00829 KA relative to UGCAUGU
4,B20,0.0132 KA relative to UGCAUGU
5,B21,0.00586 KA relative to UGCAUGU
6,B22,0.000271 KA relative to UGCAUGU
7,B23,0.0127 KA relative to UGCAUGU
8,B24,0.00696 KA relative to UGCAUGU
9,B25,0.0199 KA relative to UGCAUGU
10,B26,0.016 KA relative to UGCAUGU
11,B27,0.00152 KA relative to UGCAUGU
12,B28,0.0253 KA relative to UGCAUGU
13,B29,0.00647 KA relative to UGCAUGU
14,B30,0.00758 KA relative to UGCAUGU
15,B31,0.00209 KA relative to UGCAUGU
